From US20170342499A1, “GENOMIC CLASSIFIER THAT PREDICTS RESPONSE TO MULTI-KINASE INHIBITOR TREATMENT INTRODUCTION” (Centre Léon-Bérard, priority 2014, published 2017)

Columns and labels:
advanced solid tumors [1] = details: discovery cohort, 13 mCRC patients, first-line MTKI
advanced solid tumors [2] = experiment: Progression free survival of patients treated with MTKI; format: in vivo, human; details: one patient with thyroid carcinoma, 1st line MTKI, TTC=3
Description: The association between SCNAs and categorical variables was tested using the Mann-Whitney U-test. Association between categorical variables was assessed using Chi-square test. All p-values were two-sided. Survival curves were plotted using the Kaplan Meier method and compared using a log rank test. Statistical analysis was conducted using the SPSS 19.1 Package (SPSS, IBM France). Table 4: List of analysed mutations status by NGC (Ion torrent).

SMILES	patients with progressive disease ≦8 weeks (regorafenib resistant) (advanced solid tumors [1])	patients with stable disease or objective response at 8 weeks (regorafenib sensitive) (advanced solid tumors [1])	PFS (advanced solid tumors [2])
CNC(=O)c1cc(Oc2ccc(NC(=O)Nc3ccc(Cl)c(C(F)(F)F)c3)c(F)c2)ccn1 [Regorafenib]	7	Six	–
COc1cc2c(Nc3ccc(Br)cc3F)ncnc2cc1OCC1CCN(C)CC1 [Vandetanib]	–	–	19 months
